According to PubChem BioAssay AID686970 (National Center for Advancing Translational Sciences (NCATS), 2013):
Hit rate of the full screen: of about 360,000 compounds, about 6,000 (1.7%) were called active. Inconclusive means that the source gave no clear call. Such entries were picked first, then a sample of the others. The call rests on the fitted dose curve; in most records, active means well fitted cell-killing curve with a large enough effect; inconclusive means small, poorly fitted or top-dose-only effect, or effect the other way; inactive means flat fitted curve, though single readings scatter. No potency is given beside an inconclusive call; the fits are too rough.
Potency means the concentration at half of the fitted maximal effect; tags describe the fitted curve by direction and shape.

Test: qHTS for induction of synthetic lethality in tumor cells producing 2HG: qHTS for the HT-1080-NT fibrosarcoma cell line;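 further: NT is the 2HG producing partner of a matched IDH1 knockdown line; nearly all actives have a fitted effect of over 55% in size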;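 on activity, negative = less viability: 0% = DMSO-treated cells and -100% = media-only wells without cells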
Details: HT-1080-NT fibrosarcoma viability, CellTiter-Glo ATP luminescence, 48 h; activity, negative = less viability: at 46.1 µM (top of the series) unless noted
Summary of the method: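 Viability of the 2HG-overproducing fibrosarcoma line after 48 hours of compound exposure at 37 degrees C was determined by luminescence with CellTiter-Glo, and concentration-effect curves were then fitted and categorized.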
With `Cc1nc2nc(NC(=O)c3ccco3)nn2c(C)c1Cl` the “activity, negative = less viability” value was inactive: -0.5%.
In the case of `Cc1ccc(CN2CCN(Cc3c[nH]c4ccccc34)CC2CCO)o1` (stereo not drawn), the “activity, negative = less viability” value is reported as inactive: -26.1%.
With `Cn1cccc1/C=N/N1CCN(Cc2ccccc2)CC1` the “activity, negative = less viability” value was inactive: 13.3%.
In the case of `O=C1CN2C(=Nc3ccc(Br)cc3C2c2ccccc2)CCN1` (stereo not drawn), the “activity, negative = less viability” value is reported as inactive: -5.34%.
In the case of `Clc1cc(Br)ccc1OCCCNCc1ccccc1`, the Potency is reported as active: 23.1 µM.
In the case of `O=C(Oc1ccc2ccccc2c1)C1CCC1`, the “activity, negative = less viability” value is reported as inactive: 4.44%.
In the case of `CC(C)NC(=O)N(C)C[C@H]1Oc2ccc(NS(=O)(=O)c3ccc(Cl)cc3)cc2CC(=O)N([C@@H](C)CO)C[C@@H]1C`, the “activity, negative = less viability” value is reported as inactive: 10.8%.
For `Cc1ccc(C(=O)Cn2c(C(=O)/C=C/c3ccccc3)nc3ccccc32)cc1`, the Potency was inconclusive [cytotoxic, single point].
With `Cc1ccc(S(=O)(=O)c2c(C)nn(C(C)(C)C)c2OC(=O)C2CCCC2)cc1` the Potency was inconclusive [cytotoxic, single point].
With `COc1cc2c(cc1OC)C(C)N(CC(=O)Nc1ccc(C)c(S(=O)(=O)N3CCOCC3)c1)CC2` (stereo not drawn) the Potency was active: 16.4 µM.
In the case of `CC(=O)Nc1cccc(/C(C)=N/NC(=O)c2ccc(CN3CCOCC3)cc2)c1`, the “activity, negative = less viability” value is reported as inactive: 14.4%.
For `CCOc1ccc(OCC)c(NC(=O)C2CCCN2S(=O)(=O)c2cccc3cccnc23)c1` (stereo not drawn), the “activity, negative = less viability” value was inactive: -20.7%.
With `Cc1cnn(CCC(=O)NNC(=S)Nc2cccc(Cl)c2)c1` the Potency was active: 0.794 µM.
In the case of `Cc1c(F)cccc1NS(=O)(=O)c1ccc2c(c1)c(=O)n(C)c(=O)n2C`, the Potency is reported as inconclusive [cytotoxic, single point].
For `O=C(c1cc(-c2cccnc2)nc2ccccc12)N1CCCc2ccccc21`, the Potency was inconclusive [cytotoxic, partial curve].
With `O=C(O)CCNS(=O)(=O)c1ccc(Oc2ccccc2)cc1` the “activity, negative = less viability” value was inactive: -6.29%.
With `Cc1cccc(OCC(=O)NC(C)C(=O)N/N=C/c2c(OCc3ccccc3)ccc3ccccc23)c1` (stereo not drawn) the Potency was inconclusive [cytotoxic, single point].
For `COc1ccc(CN(C(C)=O)c2cccc(C)c2C)cc1`, the Potency was active: 16.4 µM.
With `O=C(NNc1ccccc1)OCc1ccccc1` the Potency was inconclusive [cytotoxic, full curve].
For `COc1ccc(CNC(=O)c2c(O)c3ccccc3n(C)c2=O)cc1OC`, the Potency was inconclusive [rising, full curve].
For `COc1cccc(/C=N/Nc2ncnc(Cl)c2N)c1O`, the Potency was active: 8.2 µM.
With `CCOC(=O)C1(CCOC)CCN(C(=O)c2ccc(CSC)o2)CC1` the Potency was inconclusive [rising, single point].
In the case of `CCOC(=O)c1nnc(-c2ccc(C)cc2)nc1Oc1ccc(Cl)cc1Cl`, the “activity, negative = less viability” value is reported as inactive: -27.8%.
In the case of `O=[N+]([O-])c1ccc2nc(-c3ccc(OC(F)F)cc3)cn2c1`, the Potency is reported as inconclusive [cytotoxic, single point].
With `Cc1cc(=O)[nH]c(N=N/C(=N/Nc2ccccc2C)c2ccccc2)n1` the activity, negative = less viability was inconclusive: -24.4% [cytotoxic].
In the case of `COc1cc2ccccc2cc1C(=O)Nc1ccccc1Cl`, the Potency is reported as inconclusive [cytotoxic, single point].
For `CCC(C)CCN1C(Nc2ccccc2)=NC[C@@H]1Cc1ccccc1` (stereo partly drawn), the Potency was inconclusive [cytotoxic, partial curve].
For `COc1ccccc1-c1sc2cc3c(cc2c1-c1ccc(OCCN2CCCCC2)cc1)OCO3`, the Potency was inconclusive [cytotoxic, single point].
In the case of `O=C(COc1cccnc1[N+](=O)[O-])N1N=C(c2ccc(Cl)cc2)CC1c1ccco1` (stereo not drawn), the Potency is reported as inconclusive [cytotoxic, partial curve].
In the case of `COc1ccccc1NC(=O)C1=C(C)NC(SCC(=O)c2ccccc2)=C(C#N)C1c1ccco1` (stereo not drawn), the Potency is reported as inconclusive [cytotoxic, single point].
For `COc1cccc(N2CCN(C(=O)c3ccc(CS(=O)c4ccccc4Cl)o3)CC2)c1` (stereo not drawn), the Potency was inconclusive [cytotoxic, full curve].
With `O=C(O)c1ccc(N2C(=O)CSC2=S)cc1` the Potency was inconclusive [rising, single point].
With `COc1cc2c(cc1OC)CN(C(=O)/C=C/c1cccs1)CC2` the Potency was active: 7.31 µM.
For `COc1cc2sc(-c3ccccc3OC)c(-c3ccc(OCCN4CCOCC4)cc3)c2cc1OC`, the Potency was inconclusive [cytotoxic, single point].
In the case of `C[C@H](NC(=O)c1ccccc1Cl)C(=O)OCC(=O)N1CC2(C)CC1CC(C)(C)C2` (stereo partly drawn), the “activity, negative = less viability” value is reported as inactive: 2.38%.
For `Cc1cccc(CSc2nnc(-c3cnccn3)n2C)c1`, the activity, negative = less viability was inconclusive: 38%.
In the case of `COc1ccc(C(=O)Nc2nnc(S(=O)(=O)Cc3ccc(F)cc3)s2)cc1`, the Potency is reported as inconclusive [rising, single point].
In the case of `CCCOC(=O)c1ccc(Oc2cn[nH]c2-c2ccc(O)cc2O)cc1`, the Potency is reported as active: 18.4 µM.
In the case of `COc1cccc(C(C)(O)c2nc(-c3cccc(C(C)C)c3)cs2)c1` (stereo not drawn), the Potency is reported as inconclusive [cytotoxic, single point].
In the case of `Cc1ccc(-c2nc(-c3cccnc3)no2)cc1`, the activity, negative = less viability is reported as inconclusive: 9.05%.
With `Nc1nc(NC(=O)c2ccccc2)nn1-c1ccccc1` the “activity, negative = less viability” value was inactive: -2.33%.
With `COc1cc(OC)c2c(-c3cccc(-c4ccc(NC(C)=O)cc4)c3)cc(=O)oc2c1` the Potency was active: 0.517 µM.
With `Cn1c(/C(C#N)=C(\O)c2cc(Cl)sc2Cl)nc2ccccc21` the “activity, negative = less viability” value was inactive: 2.45%.
In the case of `Nc1c2c(nc3c1CCCC3)CCCC2` (tested in a mixture with another compound), the “activity, negative = less viability” value is reported as inactive: -0.474%.
For `CCN(CC)CCCNC(=O)c1cc2c(Cl)nc3ccccc3c2s1`, the Potency was inconclusive [cytotoxic, single point].
In the case of `N#Cc1ccc(OCC(O)CN2CCN(C(c3ccccc3)c3ccccc3)CC2)cc1` (stereo not drawn), the Potency is reported as inconclusive [cytotoxic, single point].
For `Cc1ccc(C(=O)Nc2cccc([N+](=O)[O-])c2)cc1S(=O)(=O)Nc1cccc(C(=O)O)c1`, the “activity, negative = less viability” value was inactive: -6.78%.
For `CC(C)(C)c1ccc(CC(=O)N2CCC2(C)C(=O)Nc2cccc3ccccc23)cc1` (stereo not drawn), the Potency was inconclusive [cytotoxic, single point].
With `OCCN(CCO)c1nc(N2CCCCC2)c2nc(N(CCO)CCO)nc(N3CCCCC3)c2n1` the Potency was inconclusive [cytotoxic, partial curve].
With `O=C(C[C@@H]1C[C@@H]2c3cc(NC(=O)C4CCOCC4)ccc3O[C@@H]2[C@H](CO)O1)NCc1ccccn1` the “activity, negative = less viability” value was inactive: 1.08%.
For `O=C(COc1ccc(Cl)cc1Cl)Nc1ccccc1F`, the Potency was inconclusive [cytotoxic, partial curve, poor fit].
For `N#Cc1ccc(-c2ccc(OCC(=O)NCCc3ccccc3)cc2)cc1`, the “activity, negative = less viability” value was inactive: 3.22%.
With `Cc1ccc(-n2cc(CNCCCn3cccn3)c(-c3cccc(C)c3)n2)cc1` the Potency was inconclusive [cytotoxic, single point].
For `CC1C(=O)N(Cc2cn(CCC3OCCO3)nn2)CCS(=O)(=O)N1Cc1ccc(-c2ccc(Cl)cc2)cc1` (stereo not drawn), the Potency was inconclusive [cytotoxic, single point].
With `COc1ccc(/C=C/C(=O)c2ccc(O)cc2)cc1COc1ccc(F)cc1` the Potency was inconclusive [cytotoxic, single point].
For `O=C(CSc1nc(C2CCCCC2)nc2ccccc12)N1CCCC1`, the Potency was inconclusive [cytotoxic, single point].
For `O=[N+]([O-])c1ccc(O)c(-c2nc(-c3ccccc3)c(-c3cccs3)[nH]2)c1`, the Potency was inconclusive [cytotoxic, single point].
For `Cc1cccc(C)c1NC(=O)c1cccc2c1-c1ccccc1C2=O`, the “activity, negative = less viability” value was inactive: -1.76%.
For `CCCS(=O)(=O)NC(=O)C1(C)CCCN(C(=O)c2cccc(C)c2C)C1` (stereo not drawn), the Potency was inconclusive [rising, single point].
In the case of `COc1ccc(S(=O)(=O)N2CCN(C(=O)NC3CCCCC3)CC2)cc1`, the Potency is reported as inconclusive [rising, single point].
In the case of `Cc1cc(SCC#N)n2nc(C)c(-c3ccc(Cl)cc3)c2n1`, the Potency is reported as inconclusive [cytotoxic, single point].
For `CCCCCCCSc1ncnc2[nH]ncc12`, the Potency was inconclusive [cytotoxic, single point].
In the case of `O=C(c1ccc(Br)cc1)c1cc([N+](=O)[O-])ccc1N1CCOCC1`, the Potency is reported as active: 5.17 µM.
In the case of `O=[N+]([O-])c1ccccc1S(=O)(=O)N(CC1CO1)c1ccccc1` (stereo not drawn), the Potency is reported as inconclusive [cytotoxic, partial curve].
With `CC1=NN(c2ccccc2)C(=O)C1C=Nc1ccc(N(C)C)cc1` (stereo not drawn) the Potency was inconclusive [cytotoxic, full curve, poor fit].
With `COc1cccc(-c2csc(N3CCN(C(=S)Nc4ccccc4Cl)CC3)n2)c1` the Potency was inconclusive [cytotoxic, single point].
In the case of `CNS(=O)(=O)c1cccc(C(=O)OCC(=O)NC2CCCC(C)C2C)c1` (stereo not drawn), the “activity, negative = less viability” value is reported as inactive: 9%.
For `Cc1cc(Cl)ccc1OCCCC(=O)NNC(=O)c1ccccc1O`, the Potency was inconclusive [cytotoxic, partial curve].
In the case of `OC(CN1CCN(c2cccc(C(F)(F)F)c2)CC1)c1c[nH]c2ccccc12` (stereo not drawn), the Potency is reported as inconclusive [cytotoxic, single point].
For `O=C(O)c1cc(=O)[nH]c2ccccc12`, the “activity, negative = less viability” value was inactive: 9.56%.
With `O=C(COC(=O)c1cccc(Cl)c1)NCc1ccccc1` the “activity, negative = less viability” value was inactive: 5.15%.
With `Cc1sc2nc(SCC(=O)C(C)(C)C)n(Cc3ccco3)c(=O)c2c1C` the Potency was active: 7.08 µM.
In the case of `S=C(NCc1ccc(Cl)cc1)NC1CCN(Cc2ccccc2)CC1`, the Potency is reported as active: 23.1 µM.
